We go through 64 molecules from ChEMBL document CHEMBL1156829.

Over roughly 5,400 compounds, “IFI” has its median near 2; the highest 2% begin near 22. The list shows a part of the results.

The assay in a line: NOVARTIS: Inhibition Frequency Index (IFI) - the number of HTS assays where a compound showed > 50% inhibition/induction, expressed as a percentage of the number of assays in which the compound was tested. Type of assay: functional.
`Cc1ccn2c(NC(C)(C)CC(C)(C)C)c(-c3ccccc3OC(=O)c3ccccc3Br)nc2c1` had an IFI of 2.13%.

The molecule `COc1ccc(C(=O)/C(C#N)=C/NC2CCN(Cc3ccccc3)CC2)cc1` came in with an IFI of 3.33%.

The molecule `COc1ccc(CCN2C(=O)N(CC(C)C)C(=O)C23CCN(Cc2ccccc2O)CC3)cc1` had an IFI of 7.32%.

In turn, `CCCc1c2ccc(C)n2cc[n+]1CC(=O)c1ccc(OC)cc1` had an IFI of 4.54%.

Molecule `CCN(CC)c1ccc(C2N(Cc3ccccc3)CCN2Cc2ccccc2)c(O)c1` had an IFI of 0%.

With `COc1cc(C(=O)OCCC2CCC[N+]3(C)CCCCC23)cc(OC)c1OC` (centres undefined), the IFI stood at 1.85%.

`CN(CCCNc1ccnc2cc(Cl)ccc12)C(=O)COc1ccccc1` displayed an IFI of 2.8%.

Molecule `CCOC(=O)C1=C(C)NC2=C(C(=O)CC(c3ccc(OC)c(OC)c3)C2)C1c1ccccc1Br` (centres undefined) displayed an IFI of 3.53%.

In turn, `COc1cccc(-c2ccc(O)c(CN3CCCC(C)C3)c2)n1` (centres undefined) showed an IFI of 2.88%.

For `CCc1ccccc1N(CC(=O)NC1CCCCC1)C(=O)CCC(=O)Nc1ccccn1`, the IFI is 1.56%.

`CCc1cc2c(Nc3ccncc3)ncnc2s1` yielded an IFI of 1.51%.

Consider `CCCCn1c(=N)n(CC(O)c2ccc(Cl)c(Cl)c2)c2ccccc21` (centres undefined), for which the IFI turned out to be 7.69%.

As for `CCN1CCCC1CNc1[nH]cnc2c3cc(F)ccc3nc1-2` (centres undefined), the IFI was found to be 2.44%.

For `CC(Oc1ccc(Cl)cc1Cl)c1nc(-c2ccc(NC(=O)c3ccco3)cc2)no1` (centres undefined), the IFI worked out at 3.64%.

In turn, `CCN(CC)CCN1C(=O)c2ccccc2NC1c1ccc(C)cc1` (centres undefined) came in with an IFI of 6.98%.

`COc1ccc(C2CC(=O)C3=C(C2)NC(C)=C(C(=O)OC2CCCC2)C3c2ccc(Cl)cc2Cl)cc1` (centres undefined) came in with an IFI of 5.88%.

Molecule `CC(C)(C)c1ccc(O)c(CNC2CCCCC2)c1` yielded an IFI of 0%.

In the case of `COc1ccc(S(=O)(=O)N=C2C=C(Nc3ccccc3OC)C(=O)c3ccccc32)cc1`, the IFI turned out to be 23.1%.

Consider `Cc1ccc(C(C(=O)NCc2ccccc2)N(C(=O)c2snc(C(N)=O)c2N)c2ccccc2)o1` (centres undefined), for which the IFI is 4.67%.

For `CC(C)(C)c1ccc(CNC(=O)C(Cc2ccc(O)cc2)c2ccccc2)cc1` (centres undefined), the IFI turned out to be 0%.

`CCOc1ccc(C(=O)C[N+]2=C(CC)c3ccc(C)n3CC2)cc1` came in with an IFI of 0%.

As to `CCOc1ccc(CCNC(=O)c2cccs2)cc1OCC`, the IFI came out at 0%.

Turning to `C=CC[n+]1ccc(/C=C/c2ccccc2)c(C)c1`, the IFI was determined as 0%.

Molecule `COc1ccc(-n2nc(C(=O)NCC(=O)Nc3nc4ccccc4s3)c3ccccc3c2=O)cc1Cl` had an IFI of 4.65%.

Molecule `COc1cc(CNc2ccc3nc(N)nc(N)c3c2)cc(OC)c1OC` yielded an IFI of 0%.

In turn, `CCCCN(CC(=O)N1c2ccccc2-n2cccc2C1c1ccc(OC)cc1)C(=O)Nc1cccc(F)c1` (centres undefined) yielded an IFI of 6.73%.

On to `CC(C)(C)c1ccc(-c2nc(C34CC5CC(CC(C5)C3)C4)cs2)cc1`, for which the IFI was 1.1%.

As for `CCCCNC(=O)C(CC)Sc1nnc(-c2ccc(C)cc2)c(-c2ccc(C)cc2)n1` (centres undefined), the IFI worked out at 0%.

In the case of `CCn1ccccc1=Nc1cccc[n+]1CC`, the IFI is 7.69%.

`Cc1cc(C)cc(-n2c(C)cc(/C=C3\SC(=Nc4ccc(Cl)cc4)NC3=O)c2C)c1` came in with an IFI of 4.82%.

Molecule `CC1(c2ccccc2)CC(c2ccccc2)=Nc2nonc2N1` (centres undefined) returned an IFI of 1.22%.

As to `CCCCCCC(=O)NC1CCC(Nc2ccnc3cc(Cl)ccc23)CC1` (centres undefined), the IFI came out at 7.14%.

The molecule `COCCNC(=O)C(c1ccc(C)cc1)N(Cc1ccccc1)C(=O)CCC(=O)Nc1nccs1` (centres undefined) returned an IFI of 11.3%.

`CC(C)(C)CC(C)(C)c1ccc(OCC(=O)NN=C2C(=O)Nc3ccccc32)c([N+](=O)[O-])c1` yielded an IFI of 2.19%.

As for `COCCOC(=O)C1=C(C)NC2=C(C(=O)CCC2)C1c1ccc(OC)c(OC)c1OC` (centres undefined), the IFI amounted to 2.9%.

The molecule `CCCCc1ccc(NC(C)=O)cc1` gave an IFI of 2.13%.

As to `O=[N+]([O-])c1cc(NC2OC(CO)C(OC3OC(CO)C(O)C(O)C3O)C(O)C2O)ccc1Cl` (centres undefined), the IFI stood at 0%.

Regarding `CCCCN(CC)C(=O)CSc1nc2ccccc2c(=O)n1Cc1ccco1`, the IFI was 0%.

Molecule `CC1CC(C)CN(C(=O)c2sc3ccccc3c2Cl)C1` (centres undefined) came in with an IFI of 0%.

`COc1nccnc1NS(=O)(=O)c1ccc(NC(=O)c2cc3ccccc3oc2=O)cc1`: the IFI was 1.15%.

On to `CCN1c2ccccc2N=C2C=CC(N)=CC21` (centres undefined), for which the IFI worked out at 0%.

Regarding `COc1cc(OC)c(N(C)S(=O)(=O)c2cccc(C(=O)OCC(=O)Nc3ccccc3C(C)=O)c2)cc1Cl`, the IFI worked out at 9.68%.

In turn, `CC1(C)Cc2nc3ccccc3c(NCc3ccc(Cl)cc3)c2C(O)C1` (centres undefined) came in with an IFI of 0%.

On to `COc1cc(OC)c(N(C)C(=O)c2cc3c(s2)-c2ccccc2S(=O)(=O)C3)cc1Cl`, for which the IFI was found to be 2.78%.

`O=C(Nc1nc(-c2ccccn2)cs1)c1ccc(Oc2ccc(C(=O)Nc3nc(-c4ccccn4)cs3)cc2)cc1` registered an IFI of 12.6%.

With `O=C(O)c1nsnc1C(O)C(O)C(=O)O` (centres undefined), the IFI is 0%.

With `CCCCCc1ccc(C(=O)N(CCCC(C)Nc2cc(OC)cc3cccnc23)Cc2ccc(OC)c(OC)c2)cc1` (centres undefined), the IFI was 3.7%.

In the case of `COc1ccc(-[n+]2cc(-c3ccc(Cl)cc3)n3c2SCCC3)cc1`, the IFI came to 1.85%.

Turning to `C=CC1CN2CCC1CC2[C@H](O)c1ccnc2ccc(OC)cc12` (some centres undefined), the IFI was 2.63%.

`Oc1nnc(SCc2nc3ccccc3s2)n1Cc1ccco1` registered an IFI of 4.1%.

`CC12CN(Cc3ccccc3)CC(C)(CN(Cc3cccc(Br)c3)C1)C2` had an IFI of 15.4%.

Turning to `O=C(Nc1ccc2oc(-c3ccccc3F)nc2c1)c1ccc([N+](=O)[O-])o1`, the IFI stood at 14.3%.

On to `CCc1ccc(-n2c(C(CC)N(CCC(C)C)C(=O)Nc3ccc(Cl)c(Cl)c3)nc3ccccc3c2=O)cc1` (centres undefined), for which the IFI worked out at 6.67%.

For the molecule `COc1ccc(CCNC(=O)Cn2c(C)cc3ccccc3c2=O)cc1OC`, the IFI was found to be 0%.

In the case of `Nc1ccc(-c2cc(N)n(-c3ccc(Oc4ccccc4)c(S(=O)(=O)O)c3)n2)cc1`, the IFI stood at 1.83%.

Molecule `CCc1ccc(NC(=O)c2sc3nc(N)c(C#N)c(-c4ccc(OC)c(OC)c4)c3c2N)cc1` gave an IFI of 1.06%.

Regarding `CCN(Cc1ccccc1)c1ncnc2ccc(Br)cc12`, the IFI is 1.56%.

For `Cc1cc(N)c2ccccc2[n+]1CCCCCCCCCC[n+]1c(C)cc(N)c2ccccc21`, the IFI was found to be 5.79%.

`CC(C(=O)N1CCN(C(c2ccccc2)c2ccccc2)CC1)N(CCN1CCOCC1)S(=O)(=O)c1ccccn1` (centres undefined): the IFI came out at 0.99%.

Consider `FC(F)(F)COc1nc(N2CCCCC2)nc(N(c2ccccc2)c2ccccc2)n1`, for which the IFI is 0%.

On to `Cc1cccc(OC(C)C(=O)N2CCc3ccccc32)c1` (centres undefined), for which the IFI came out at 0%.

The molecule `COc1ccc(OC)c(/C=C/C(=O)Nc2ccc3nc(N4CCN(C)CC4)cc(C)c3c2)c1` returned an IFI of 11.7%.

`O=[N+]([O-])c1ccc(-c2cn3nc(C(F)(F)F)sc3n2)cc1` had an IFI of 2.82%.

Molecule `COc1ccc(Cl)cc1NC(=O)CSC1=C(C#N)C(c2ccccc2)C(C(=O)Nc2ccccc2)=C(C)N1` (centres undefined) showed an IFI of 0%.
